Data published in the supplement of paper PMC6746778.
Some of the results follow. Single values are uncertain, as repeats are few or missing.

What was measured:
Experiment in all cases: proliferation Z-score within cell line (SRB, relative to all inhibitors screened on that line); triple-negative breast cancer lines and a kinase inhibitor library; SRB is the sulforhodamine B protein stain; higher = less growth inhibition (more resistant)
Details in all cases: concentration: 1 µM; 4 days
Bt20 = system: Bt20
Bt549 = system: Bt549
HCC1143 = system: HCC1143
HCC1806 = system: HCC1806
HCC1937 = system: HCC1937
HCC38 = system: HCC38
HCC70 = system: HCC70
Hs578T = system: Hs578T
MDA-MB-231 = system: MDA-MB-231
MDA-MB-435s = system: MDA-MB-435s
MDA-MB-436 = system: MDA-MB-436
MDA-MB-453 = system: MDA-MB-453
MDA-MB-468 = system: MDA-MB-468
SKBR7 = system: SKBR7
SUM1315MO2 = system: SUM1315MO2
SUM149PT = system: SUM149PT
SUM159PT = system: SUM159PT
SUM185PE = system: SUM185PE
SUM229PE = system: SUM229PE
SUM52PE = system: SUM52PE
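Also: Single-dose primary screen of a 378-member kinase inhibitor library in 96-well plates, with growth read as absorbance of protein-bound SRB dye after TCA fixation.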

Row | Structure (SMILES) | proliferation Z-score within cell line (Bt20) | proliferation Z-score within cell line (Bt549) | proliferation Z-score within cell line (HCC1143) | proliferation Z-score within cell line (HCC1806) | proliferation Z-score within cell line (HCC1937) | proliferation Z-score within cell line (HCC38) | proliferation Z-score within cell line (HCC70) | proliferation Z-score within cell line (Hs578T) | proliferation Z-score within cell line (MDA-MB-231) | proliferation Z-score within cell line (MDA-MB-435s) | proliferation Z-score within cell line (MDA-MB-436) | proliferation Z-score within cell line (MDA-MB-453) | proliferation Z-score within cell line (MDA-MB-468) | proliferation Z-score within cell line (SKBR7) | proliferation Z-score within cell line (SUM1315MO2) | proliferation Z-score within cell line (SUM149PT) | proliferation Z-score within cell line (SUM159PT) | proliferation Z-score within cell line (SUM185PE) | proliferation Z-score within cell line (SUM229PE) | proliferation Z-score within cell line (SUM52PE)
1 | COc1ccc2c(c1)c(C1=C(c3c[nH]c4ccccc34)C(=O)NC1=O)cn2CCCN(C)C | 0.319 | 0.628 | 0.251 | 0.442 | 0.469 | 0.513 | 0.394 | 0.592 | 0.663 | 0.538 | 0.885 | 0.99 | 0.764 | 0.376 | 0.411 | 0.8 | 0.304 | -0.15 | -0.0454 | 0.21
2 | CCN(CC)CCCCNc1ncc2cc(-c3cc(OC)cc(OC)c3)c(NC(=O)NC(C)(C)C)nc2n1 | 0.785 | -0.339 | -0.585 | 0.578 | 0.0557 | 0.593 | 0.302 | 0.211 | 0.985 | 0.947 | 0.263 | -0.414 | 1.02 | 0.671 | -1.31 | 0.545 | 0.755 | -1.95 | 0.487 | -1.45
3 | Cn1cc(-c2ccc3ncc(Cc4ccc5ncccc5c4)n3n2)cn1 | 0.496 | 0.803 | 0.785 | 0.636 | 0.673 | 0.653 | 0.708 | 0.871 | 0.677 | 0.985 | 1.04 | 1.06 | -0.381 | 0.972 | 0.797 | 0.875 | 0.635 | 0.778 | 0.82 | 0.893
4 | Nc1nc(Nc2ccc(S(N)(=O)=O)cc2)nn1C(=O)c1c(F)cccc1F | 0.533 | -0.667 | 0.711 | 0.358 | 0.433 | -0.218 | 0.586 | 0.0172 | -1.01 | -0.122 | 0.614 | -0.574 | -1.16 | -0.609 | 0.667 | 0.111 | 0.654 | 0.178 | 0.465 | 0.133
5 | Cc1cnc(Nc2ccc(N3CCN(C)CC3)cc2)nc1Nc1cccc(S(=O)(=O)NC(C)(C)C)c1 | 0.26 | 0.301 | -0.386 | -0.105 | 0.0652 | 0.636 | 0.723 | 0.0765 | -0.537 | -0.748 | -0.187 | 0.48 | -0.202 | -0.235 | -0.874 | -0.826 | 0.582 | -0.49 | 0.138 | -1.06
6 | Cn1cnc(=N)c2[nH]cnc21 [3-Methyladenine] | 0.614 | 0.797 | 0.813 | 0.889 | 0.7 | 0.538 | 0.697 | 0.709 | 1.01 | 0.72 | 0.688 | 1.05 | 1.1 | 0.892 | 0.878 | 0.792 | 0.578 | 0.72 | 0.551 | 0.969
7 | OCCn1cc(-c2ccc3c(c2)CC/C3=N\O)c(-c2ccncc2)n1 | 0.878 | 0.57 | 0.73 | 0.886 | 0.659 | 0.00835 | 0.511 | 0.478 | 0.952 | -1.47 | 0.309 | 0.242 | 1.13 | 0.553 | 0.616 | 0.824 | 0.271 | 0.314 | 1.27 | -0.691
8 | C#Cc1cccc(Nc2ncnc3cc(OC)c(OCCCCCCC(=O)NO)cc23)c1 | -0.111 | 0.0928 | -1.64 | -1.84 | -0.258 | 0.168 | 0.293 | 0.463 | -0.0228 | 0.69 | 0.294 | -1.56 | -1.38 | 0.249 | 0.49 | -0.355 | 0.342 | 0.0669 | 0.57 | -0.453
9 | C=CC(=O)N1CCC[C@@H](n2nc(-c3ccc(Oc4ccccc4)cc3)c3c(N)ncnc32)C1 | 0.263 | 0.885 | 0.152 | -0.972 | -0.613 | 0.677 | 0.765 | 0.782 | 1.03 | 0.923 | 0.784 | -0.91 | -0.866 | 0.667 | 1.05 | 0.28 | 0.755 | 0.97 | 0.464 | 0.751
10 | Cn1cc(-c2cnn3c(N)c(Br)c([C@@H]4CCCNC4)nc23)cn1 | 0.734 | 0.186 | 0.126 | -1.12 | 0.0378 | 0.0822 | -0.876 | 0.505 | 0.724 | 0.913 | -0.653 | 0.29 | 0.987 | 0.229 | -0.259 | 0.725 | 0.518 | 0.00537 | -0.0531 | 0.905
11 | C[C@H](Nc1ncnc2nc[nH]c12)c1cc2cccc(Cl)c2c(=O)n1-c1ccccc1 | 0.456 | -0.572 | 0.0274 | -0.833 | -0.975 | 0.233 | -1.36 | -0.549 | 0.504 | 0.24 | -1.45 | 0.105 | -0.83 | 0.889 | 0.162 | 0.465 | 0.333 | -0.086 | 0.0318 | -0.498
12 | Cc1csc(-c2nnc(Nc3ccc(Oc4ncccc4-c4ccnc(N)n4)cc3)c3ccccc23)c1 | -0.167 | -0.416 | 0.275 | 0.486 | 0.463 | -0.242 | -0.259 | -0.252 | -0.701 | -0.0419 | -0.246 | -0.35 | -1.43 | -0.437 | 0.306 | 0.374 | -0.168 | 0.513 | 0.0576 | -0.478
